Experimental data: article PMC9911399, “Two distinct binding modes provide the RNA-binding protein RbFox with extraordinary sequence specificity”
Where a chain is given by its changes, count along the chain named. This is one part of the list.

T1: RBFOX1 RRM RbFoxmut (Fox-RRM*) (Homo sapiens, UniProt Q9NWB1 109-208, R118D;E147R;N151S;E152T)
T1 sequence: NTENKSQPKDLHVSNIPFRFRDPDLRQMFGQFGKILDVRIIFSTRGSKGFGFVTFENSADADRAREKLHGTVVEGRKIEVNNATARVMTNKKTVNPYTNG

B1: GCUAACA (DNA:RNA)
RNA: GGGAGACCGGAAUUCAGAUUGUCCGCUAACAUUAAAUCCCGUCGUAGCCACCA
DNA 1: CAATCTGAATTCCGGTCTCCC
DNA 2: TGGTGGCTACGACGGGATT
B2: GCAUGAA (DNA:RNA)
RNA: B1 RNA with U27A, A28U, A29G, C30A
DNA 1: CAATCTGAATTCCGGTCTCCC
DNA 2: TGGTGGCTACGACGGGATT
B3: CGGCUUC (DNA:RNA)
RNA: GGGAGACCGGAAUUCAGAUUGUCCCGGCUUCUUAAAUCCCGUCGUAGCCACCA
DNA 1: CAATCTGAATTCCGGTCTCCC
DNA 2: TGGTGGCTACGACGGGATT
B4: GCGGGAU (DNA:RNA)
RNA: B1 RNA with U27G, A28G, A29G, C30A, A31U
DNA 1: CAATCTGAATTCCGGTCTCCC
DNA 2: TGGTGGCTACGACGGGATT
B5: UCCUUUU (DNA:RNA)
RNA: B3 RNA with C25U, G26C, G27C, C28U, C31U
DNA 1: CAATCTGAATTCCGGTCTCCC
DNA 2: TGGTGGCTACGACGGGATT
B6: GGUCGAC (DNA:RNA)
RNA: B3 RNA with C25G, G27U, U29G, U30A
DNA 1: CAATCTGAATTCCGGTCTCCC
DNA 2: TGGTGGCTACGACGGGATT
B7: UAUUGCU (DNA:RNA)
RNA: B1 RNA with G25U, C26A, A28U, A29G, A31U
DNA 1: CAATCTGAATTCCGGTCTCCC
DNA 2: TGGTGGCTACGACGGGATT
B8: GAUUUUG (DNA:RNA)
RNA: B3 RNA with C25G, G26A, G27U, C28U, C31G
DNA 1: CAATCTGAATTCCGGTCTCCC
DNA 2: TGGTGGCTACGACGGGATT
B9: UGAGCGA (DNA:RNA)
RNA: B3 RNA with C25U, G27A, C28G, U29C, U30G, C31A
DNA 1: CAATCTGAATTCCGGTCTCCC
DNA 2: TGGTGGCTACGACGGGATT
B10: CAUCGUC (DNA:RNA)
RNA: B3 RNA with G26A, G27U, U29G
DNA 1: CAATCTGAATTCCGGTCTCCC
DNA 2: TGGTGGCTACGACGGGATT
B11: AGUCUCC (DNA:RNA)
RNA: B3 RNA with C25A, G27U, U30C
DNA 1: CAATCTGAATTCCGGTCTCCC
DNA 2: TGGTGGCTACGACGGGATT
B12: UUCAGCA (DNA:RNA)
RNA: B1 RNA with G25U, C26U, U27C, A29G
DNA 1: CAATCTGAATTCCGGTCTCCC
DNA 2: TGGTGGCTACGACGGGATT
B13: ACAUGAC (DNA:RNA)
RNA: B3 RNA with C25A, G26C, G27A, C28U, U29G, U30A
DNA 1: CAATCTGAATTCCGGTCTCCC
DNA 2: TGGTGGCTACGACGGGATT
B14: GGACACU (DNA:RNA)
RNA: B1 RNA with C26G, U27A, A28C, A31U
DNA 1: CAATCTGAATTCCGGTCTCCC
DNA 2: TGGTGGCTACGACGGGATT
B15: GGGCACA (DNA:RNA)
RNA: B1 RNA with C26G, U27G, A28C
DNA 1: CAATCTGAATTCCGGTCTCCC
DNA 2: TGGTGGCTACGACGGGATT
B16: AAAUUAA (DNA:RNA)
RNA: B3 RNA with C25A, G26A, G27A, C28U, U30A, C31A
DNA 1: CAATCTGAATTCCGGTCTCCC
DNA 2: TGGTGGCTACGACGGGATT
B17: ACUGGGG (DNA:RNA)
RNA: B1 RNA with G25A, A28G, A29G, C30G, A31G
DNA 1: CAATCTGAATTCCGGTCTCCC
DNA 2: TGGTGGCTACGACGGGATT
B18: GUCAGGA (DNA:RNA)
RNA: B1 RNA with C26U, U27C, A29G, C30G
DNA 1: CAATCTGAATTCCGGTCTCCC
DNA 2: TGGTGGCTACGACGGGATT
B19: GUUACCU (DNA:RNA)
RNA: B1 RNA with C26U, A29C, A31U
DNA 1: CAATCTGAATTCCGGTCTCCC
DNA 2: TGGTGGCTACGACGGGATT
B20: UAGGGCU (DNA:RNA)
RNA: B3 RNA with C25U, G26A, C28G, U29G, U30C, C31U
DNA 1: CAATCTGAATTCCGGTCTCCC
DNA 2: TGGTGGCTACGACGGGATT

Biological target: T1, RBFOX1 RRM RbFoxmut (Fox-RRM*)
Test: EMSA; HiTS-Eq, 1 nM pool, 10 min; buffer printed only for the single-RNA assays: 10 mM Tris pH 7.5, 150 mM NaCl, 3.4 mM EDTA, 0.001% NP-40, 30 C
Details: tags: His6 N-terminal (pET28a); label: 5' 32P
How it was run: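 Purified RbFox RRM, wild type or mutant, was incubated for 10 min in 50 µL with 1 nM of a 5′-radiolabelled RNA pool carrying 7 randomized nucleotides, whose flanks were annealed to DNA oligonucleotides, over a series of increasing protein concentrations. Unbound RNA was resolved on 8% native PAGE, cut out, reverse-transcribed, barcoded by PCR and sequenced on an Illumina HiSeq 2500. Relative association constants were derived from changes in read counts for each RNA species versus the control reaction and normalised to the cognate motif.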

**Q.** B1 was tested. Which binding signal did it give?
**A.** 0.0918 KA relative to UGCAUGU

**Q.** For B2, which binding signal is on record?
**A.** 0.798 KA relative to UGCAUGU

**Q.** How did the binding signal turn out when B3 was run?
**A.** 0.16 KA relative to UGCAUGU

**Q.** How did the binding signal turn out when B4 was run?
**A.** 0.13 KA relative to UGCAUGU

**Q.** Which binding signal does the source give for B5 here?
**A.** 0.0728 KA relative to UGCAUGU

**Q.** Which binding signal does the source give for B6 here?
**A.** 0.0842 KA relative to UGCAUGU

**Q.** With B7 as the binder, how does the binding signal read?
**A.** 0.132 KA relative to UGCAUGU

**Q.** How did the binding signal turn out when B8 was run?
**A.** 0.102 KA relative to UGCAUGU

**Q.** For B9, which binding signal is on record?
**A.** 0.0866 KA relative to UGCAUGU

**Q.** With B10 as the binder, how does the binding signal read?
**A.** 0.132 KA relative to UGCAUGU

**Q.** Which binding signal does the source give for B11 here?
**A.** 0.0783 KA relative to UGCAUGU

**Q.** How did the binding signal turn out when B12 was run?
**A.** 0.124 KA relative to UGCAUGU

**Q.** How did the binding signal turn out when B13 was run?
**A.** 0.0881 KA relative to UGCAUGU

**Q.** With B14 as the binder, how does the binding signal read?
**A.** 0.0497 KA relative to UGCAUGU

**Q.** With B15 as the binder, how does the binding signal read?
**A.** 0.073 KA relative to UGCAUGU

**Q.** With B16 as the binder, how does the binding signal read?
**A.** 0.0964 KA relative to UGCAUGU

**Q.** How did the binding signal turn out when B17 was run?
**A.** 0.106 KA relative to UGCAUGU

**Q.** B18 was tested. Which binding signal did it give?
**A.** 0.0603 KA relative to UGCAUGU

**Q.** B19 was tested. Which binding signal did it give?
**A.** 0.121 KA relative to UGCAUGU

**Q.** Which binding signal does the source give for B20 here?
**A.** 0.0664 KA relative to UGCAUGU
